Measurements as given in patent publication US9730926B2, “Combination therapy using bispecific anti-c-Met/anti-EGFR antibody and c-Src inhibitor” (Samsung Electronics Co., Ltd., priority 2014, dated 2017).

What was measured:
Settings in all cases: rank among the four antibodies huAbF46-H4-A1, -A2, -A3, -A5
c-Met [1] = molecular target: T1, c-Met (Homo sapiens, UniProt P08581); assay: Affinity for c-Met of the four affinity-matured antibodies; assay type: binding
Excerpt: (§1) In the antibody, the hinge region, or the constant region and the hinge region, were substituted.

Akt phosphorylation = Akt phosphorylation by the four affinity-matured antibodies; assay type: cell-based
Excerpt: as §1

c-Met [2] = molecular target: T1, c-Met; assay: c-Met degradation degree of the four affinity-matured antibodies; assay type: cell-based
Excerpt: as §1

T1 sequence (P08581 25-1390): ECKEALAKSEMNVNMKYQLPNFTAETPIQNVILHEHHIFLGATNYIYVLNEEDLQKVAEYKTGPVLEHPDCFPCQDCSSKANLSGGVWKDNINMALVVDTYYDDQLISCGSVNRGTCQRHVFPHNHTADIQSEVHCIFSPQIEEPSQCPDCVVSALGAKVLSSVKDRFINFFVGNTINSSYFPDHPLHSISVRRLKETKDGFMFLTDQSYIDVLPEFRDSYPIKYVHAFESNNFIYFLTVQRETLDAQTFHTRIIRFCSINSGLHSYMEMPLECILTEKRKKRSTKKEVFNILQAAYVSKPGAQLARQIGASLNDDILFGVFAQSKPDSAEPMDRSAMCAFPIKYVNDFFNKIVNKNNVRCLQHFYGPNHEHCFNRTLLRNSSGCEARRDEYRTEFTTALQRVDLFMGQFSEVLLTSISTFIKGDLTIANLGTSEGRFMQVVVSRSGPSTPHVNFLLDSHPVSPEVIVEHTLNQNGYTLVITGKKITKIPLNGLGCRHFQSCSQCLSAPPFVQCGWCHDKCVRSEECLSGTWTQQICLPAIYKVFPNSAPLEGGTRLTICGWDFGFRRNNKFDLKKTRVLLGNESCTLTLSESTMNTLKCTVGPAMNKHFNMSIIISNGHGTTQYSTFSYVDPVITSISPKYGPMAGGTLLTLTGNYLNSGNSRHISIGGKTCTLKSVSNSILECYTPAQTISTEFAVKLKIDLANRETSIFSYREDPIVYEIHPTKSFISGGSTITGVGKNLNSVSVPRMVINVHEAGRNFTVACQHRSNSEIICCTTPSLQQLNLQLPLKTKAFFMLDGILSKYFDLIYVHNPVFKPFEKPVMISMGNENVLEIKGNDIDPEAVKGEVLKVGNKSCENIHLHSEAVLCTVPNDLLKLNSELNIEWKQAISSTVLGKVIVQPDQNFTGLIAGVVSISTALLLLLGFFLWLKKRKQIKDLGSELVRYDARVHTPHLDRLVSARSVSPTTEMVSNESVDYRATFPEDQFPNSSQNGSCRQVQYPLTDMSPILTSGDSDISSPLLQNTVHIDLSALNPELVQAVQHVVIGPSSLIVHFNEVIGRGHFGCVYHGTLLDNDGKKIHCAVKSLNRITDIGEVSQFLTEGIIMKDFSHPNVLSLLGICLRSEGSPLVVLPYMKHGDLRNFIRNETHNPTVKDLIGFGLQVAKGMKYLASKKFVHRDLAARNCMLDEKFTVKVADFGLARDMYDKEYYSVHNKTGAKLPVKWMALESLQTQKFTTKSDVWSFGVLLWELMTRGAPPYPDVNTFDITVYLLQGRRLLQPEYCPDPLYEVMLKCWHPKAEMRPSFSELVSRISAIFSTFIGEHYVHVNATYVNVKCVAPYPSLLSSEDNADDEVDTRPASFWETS

- affinity for c-Met (c-Met [1]): highest
- c-Met degradation degree (c-Met [2]): lowest
B1: huAbF46-H4-A1: affinity-matured humanized anti-c-Met antibody (L3-1 origin) (antibody)
heavy: EVQLVESGGGLVQPGGSLRLSCAASGFTFTDYYMSWVRQAPGKGLEWLGFIRNKANGYTTEYSASVKGRFTISRDNSKNTLYLQMNSLRAEDTAVYYCARDNWFAYWGQGTLVTVSSASTKGPSVFPLAPSSKSTSGGTAALGCLVKDYFPEPVTVSWNSGALTSGVHTFPAVLQSSGLYSLSSVVTVPSSSLGTQTYICNVNHKPSNTKVDKKVEPKSCDCH[human IgG1 Fc skipped]
light: DIQMTQSPSSLSASVGDRVTITCKSSQSLLASGNQNNYLAWHQQKPGKAPKMLIIWASTRVSGVPSRFSGSGSGTDFTLTISSLQPEDFATYYCQQSYSRPYTFGQGTKVEIKRTVAAPSVFIFPPSDEQLKSGTASVVCLLNNFYPREAKVQWKVDNALQSGNSQESVTEQDSKDSTYSLSSTLTLSKADYEKHKVYACEVTHQGLSSPVTKSFNRGEC
- Akt phosphorylation (Akt phosphorylation): lowest
